{"source": "PubChem BioAssay AID588342", "about": "(National Center for Advancing Translational Sciences (NCATS), 2011)", "note": "About 25,000 (6.9%) of roughly 360,000 compounds were called active. The inconclusive results got no clear call from the source; some entries with a clear call stand among them for comparison. Calls follow the shape of the dose curve; as a rule, active = well fitted inhibition curve with a large enough effect; inconclusive = small, poorly fitted or top-dose-only effect; inactive = flat fitted curve, though single readings scatter. Potencies of inconclusive entries are doubtful fits and often do not repeat. Potency is read from the fitted curve at half-maximal effect; tags tell the direction and shape of the fitted curve."}
{"target": "Luciferin 4-monooxygenase (Photinus pyralis) (UniProt P08659)", "sequence (P08659 whole entry, looked up)": "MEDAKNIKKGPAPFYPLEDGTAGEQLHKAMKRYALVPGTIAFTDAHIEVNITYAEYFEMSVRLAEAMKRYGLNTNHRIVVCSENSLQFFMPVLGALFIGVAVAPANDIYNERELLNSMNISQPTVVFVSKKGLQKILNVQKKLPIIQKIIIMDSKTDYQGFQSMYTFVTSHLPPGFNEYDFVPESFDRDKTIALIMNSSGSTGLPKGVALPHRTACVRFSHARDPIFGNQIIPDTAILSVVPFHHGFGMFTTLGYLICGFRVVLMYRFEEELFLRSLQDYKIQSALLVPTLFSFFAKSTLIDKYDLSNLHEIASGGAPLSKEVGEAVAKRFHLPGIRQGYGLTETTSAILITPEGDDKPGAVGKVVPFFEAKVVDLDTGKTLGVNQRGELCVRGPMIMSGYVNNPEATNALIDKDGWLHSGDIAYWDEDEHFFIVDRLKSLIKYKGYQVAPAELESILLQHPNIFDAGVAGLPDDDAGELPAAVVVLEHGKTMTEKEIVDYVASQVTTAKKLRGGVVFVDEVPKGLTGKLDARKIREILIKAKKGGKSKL", "experiment": "qHTS profiling assay for firefly luciferase inhibitor/activator using purifed enzyme and Km concentrations of substrates (counterscreen for miR-21 project); also: nearly all actives have a fitted effect of over 55% in size;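 as to activity change, negative = inhibition: plate controls were vehicle for no effect and reference inhibitor for full effect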", "conditions": "purified FLuc, luminescence inhibition; activity change, negative = inhibition: at 57.5 µM (top of the series)", "outline": "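Purified P. pyralis luciferase (10nM final) with 10uM D-luciferin and 10uM ATP (Km levels) in 50mM Tris acetate pH 7.5, 10mM Mg acetate, 0.01% Tween-20, 0.05% BSA; qHTS 6-point titration, ~60 µM downward; luminescence read.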"}
{"compound": "NC(=O)COC(=O)c1ccc(C(=O)C(=O)c2ccccc2)cc1", "activity change, negative = inhibition": "inactive: -4.22%"}
{"compound": "OC(c1ccc(Cl)cc1)c1nnc(-c2ccccc2)o1", "note": "(configuration not stated)", "Potency": "inconclusive: 21.3 µM [inhibitor, partial curve, poor fit]"}
{"compound": "Cc1ccccc1N1CCN(C2CCCN(C(=O)c3cnsn3)C2)CC1", "note": "(configuration not stated)", "activity change, negative = inhibition": "inactive: -2.4%"}
{"compound": "Cc1ccc([N+](=O)[O-])cc1S(=O)(=O)N1CCn2cccc2C1c1ccccc1F", "note": "(configuration not stated)", "activity change, negative = inhibition": "inactive: -7.54%"}
{"compound": "CCCCOc1ccc(/C=N/Nc2cc(N3CCOCC3)nc(C)n2)cc1", "Potency": "inconclusive: 30.1 µM [inhibitor, partial curve, poor fit]"}
{"compound": "COc1ccc(C(=O)Nc2ccc(N3CCN(C)CC3)cc2)cc1[N+](=O)[O-]", "Potency": "inconclusive: 37.9 µM [inhibitor, partial curve, poor fit]"}
{"compound": "COC(=O)c1c(NC(=O)CN(c2ccccc2)S(C)(=O)=O)sc2c1CCCC2", "activity change, negative = inhibition": "inactive: 0.598%"}
{"compound": "Fc1cnc(N2CCOCC2)nc1N1CCc2ccccc21", "Potency": "inconclusive: 21.3 µM [inhibitor, single point]"}
{"compound": "Cc1ccc(NC(=O)c2ccccc2NS(=O)(=O)c2ccc(Cl)s2)cc1S(=O)(=O)N1CCOCC1", "Potency": "inconclusive: 37.9 µM [inhibitor, single point]"}
{"compound": "CC1(C)CC(=O)c2c(O)cc(OCC(=O)N3CCN(c4ccc(F)cc4)CC3)cc2O1", "Potency": "active: 21.3 µM"}
{"compound": "CC(OC(=O)c1c2c(nc3ccccc13)/C(=C\\c1ccc3c(c1)OCO3)CCC2)C(=O)Nc1ccc(S(N)(=O)=O)cc1", "note": "(configuration not stated)", "Potency": "inconclusive: 37.9 µM [inhibitor, partial curve, poor fit]"}
{"compound": "CC1(C)OC(=O)C(=CNc2cccc(C(=O)O)c2)C(=O)O1", "Potency": "active: 15.1 µM"}
{"compound": "COc1ccc(/C=N/NC(=O)c2cccc([N+](=O)[O-])c2)cc1O", "Potency": "active: 21.3 µM"}
{"compound": "COc1cc(C(=O)OCCCN(C)C)cc(OC)c1OC", "activity change, negative = inhibition": "inactive: 3.12%"}
{"compound": "CCC1CCCCN1C(=O)CSc1nnc(-c2cccc(Cl)c2)o1", "note": "(configuration not stated)", "Potency": "inconclusive: 26.9 µM [inhibitor, single point]"}
{"compound": "COc1ccc(-c2cnn3c4c(c(C)nc23)CCN4C(C)C)cc1OC", "Potency": "inconclusive: 2.13 µM [inhibitor, partial curve, poor fit]"}
{"compound": "COc1cccc(C(=O)c2cc3cc(Cl)ccc3[nH]2)c1", "Potency": "inconclusive: 26.9 µM [inhibitor, single point]"}
{"compound": "Cn1cccc1/C=N/NC(=O)c1cccnc1", "Potency": "inconclusive: 33.8 µM [inhibitor, partial curve, poor fit]"}
{"compound": "CCOc1ccc(N(C)c2ccc(/C=C3/SC(=S)NC3=O)cc2)cc1", "Potency": "inconclusive: 30.1 µM [inhibitor, single point]"}
{"compound": "O=C(COC(=O)CC1CCCC1)Nc1ccc(OC(F)F)cc1", "Potency": "inconclusive: 33.8 µM [inhibitor, single point]"}
{"compound": "CC1=NN(c2ccc(C)c(C)c2)C(=O)C1C(c1cccc(O)c1)C1C(=O)N(c2ccc(C)c(C)c2)N=C1C", "note": "(configuration not stated)", "Potency": "inconclusive: 37.9 µM [inhibitor, partial curve, poor fit]"}
{"compound": "Cc1cc(NC(=O)NCc2ccccc2)c(=O)n(Cc2ccc(F)cc2)c1", "Potency": "active: 1.69 µM"}
{"compound": "Cc1onc(-c2c(Cl)cccc2Cl)c1C(=O)Nc1nccs1", "activity change, negative = inhibition": "inactive: 2.74%"}
{"compound": "CCCNC(=O)c1nc(C)n(-c2ccc([N+](=O)[O-])cc2)n1", "activity change, negative = inhibition": "inactive: 0.713%"}
{"compound": "Cc1ccc(-c2nc(NCC3CCCO3)sc2C)cc1", "note": "(configuration not stated)", "Potency": "inconclusive: 19 µM [inhibitor, partial curve]"}
{"compound": "CC(=O)c1cccc(NC(=O)/C(=C/c2ccncc2)NC(=O)c2ccccc2)c1", "activity change, negative = inhibition": "inactive: 0.271%"}
{"compound": "COc1ccc(NC(=O)Nc2nc3c(s2)CCCC3)cc1", "Potency": "active: 4.78 µM"}
{"compound": "O=C(c1noc2c1CCCCC2)N1CCN(c2cccc(C(F)(F)F)c2)CC1", "activity change, negative = inhibition": "inactive: -9.98%"}
{"compound": "CCOC(=O)c1ccccc1NC(=O)Cn1cnc2c(oc3ccccc32)c1=O", "Potency": "inconclusive: 30.1 µM [inhibitor, partial curve, poor fit]"}
{"compound": "Cc1ccc(C(=O)C=CNNC(=O)c2ccccc2)cc1", "Potency": "active: 23.9 µM"}
{"compound": "O=C(CNc1ccccc1OC(F)F)N1CCc2ccccc21", "Potency": "inconclusive: 3.01 µM [inhibitor, full curve]"}
{"compound": "CCn1c(SC(C)C)nnc1-c1c[nH]c2ccccc12", "Potency": "inconclusive: 26.9 µM [inhibitor, single point]"}
{"compound": "COCCN(C(=O)COC(=O)c1cccs1)c1c(N)n(Cc2ccccc2)c(=O)[nH]c1=O", "activity change, negative = inhibition": "inactive: 0.0908%"}
{"compound": "O=C(/C=C/c1ccc([N+](=O)[O-])cc1)NCc1cccs1", "Potency": "inconclusive: 26.9 µM [inhibitor, single point]"}
{"compound": "NC(=S)n1[nH]c(-c2ccc([N+](=O)[O-])cc2)c(N=Nc2cccc([N+](=O)[O-])c2)c1=O", "Potency": "inconclusive: 23.9 µM [inhibitor, single point]"}
{"compound": "Nc1ccc(-c2nc3ccc(N)cc3o2)cc1", "Potency": "active: 1.51 µM"}
{"compound": "Cc1ccc(S(=O)(=O)c2c(C(=O)c3ccccc3)cnc3cc4c(cc23)OCCO4)cc1", "Potency": "inconclusive: 8.49 µM [inhibitor, partial curve, poor fit]"}
{"compound": "CCCCNC(=O)COCc1cc(-c2ccc3c(c2)OCO3)on1", "Potency": "inconclusive: 26.9 µM [inhibitor, single point]"}
{"compound": "COc1ccc2c(c1)c(C(=O)N/N=C/c1ccc(Br)cc1)c(C)n2C", "Potency": "inconclusive: 37.9 µM [inhibitor, partial curve, poor fit]"}
{"compound": "O=C(CNC(=S)NC(=O)c1cccs1)c1ccccc1", "Potency": "inconclusive: 26.9 µM [inhibitor, single point]"}
{"compound": "O=C(Nc1sc2c(c1C(=O)O)CCCC2)c1cccc(Cl)c1", "Potency": "active: 23.9 µM"}
{"compound": "O=C(CCNC(=O)c1ccc([N+](=O)[O-])cc1)Nc1cc(Cl)ccc1N1CCOCC1", "activity change, negative = inhibition": "inactive: 6.11%"}
{"compound": "Cc1cccc(OCC(=O)Nc2nc3c(s2)CC(C(C)(C)C)CC3)c1C", "note": "(configuration not stated)", "Potency": "inconclusive: 6.01 µM [inhibitor, full curve]"}
{"compound": "CCN(CC)c1ccc(NC(=O)c2cnc3c(-c4ccccc4)c(C)nn3c2C)c(C)c1", "Potency": "inconclusive: 9.53 µM [inhibitor, partial curve, poor fit]"}
{"compound": "Cc1ccc(C)c(NC(=O)CSc2nnc(C3CCCCC3)o2)c1", "activity change, negative = inhibition": "inactive: -3.28%"}
{"compound": "Cc1ccccc1NC(=O)NCCCCc1ccccc1", "Potency": "inconclusive: 37.9 µM [inhibitor, partial curve, poor fit]"}
{"compound": "COc1ccc(/C(C#N)=C/c2cccnc2)cc1", "Potency": "inconclusive: 23.9 µM [inhibitor, partial curve]"}
{"compound": "O=C(Nc1ccon1)c1cccc(Cl)c1", "activity change, negative = inhibition": "inactive: 3.05%"}
{"compound": "CC1C(=O)C(C)C(c2ccccc2F)NC1c1ccccc1F", "note": "(configuration not stated)", "Potency": "inconclusive: 37.9 µM [inhibitor, partial curve, poor fit]"}
{"compound": "COc1ccc2c(c1)CCc1c(C(=O)Nc3c(C)n(C)n(-c4ccccc4)c3=O)noc1-2", "Potency": "active: 23.9 µM"}
{"compound": "Cc1ccc(CSCCNC(=O)/C=C/c2ccccc2Cl)cc1", "Potency": "inconclusive: 37.9 µM [inhibitor, partial curve, poor fit]"}
{"compound": "COc1ccccc1/C=N/N1C(=O)C2C3C=CC(CC3)C2C1=O", "note": "(configuration not stated)", "Potency": "inconclusive: 19 µM [inhibitor, partial curve]"}
{"compound": "CSc1nc2c(c(=O)[nH]1)C(c1cccc(F)c1F)CC(=O)N2", "note": "(configuration not stated)", "activity change, negative = inhibition": "inactive: -3.5%"}
{"compound": "CCc1cc2cc(C)cc(C)c2nc1Cl", "Potency": "inconclusive: 37.9 µM [inhibitor, single point]"}
{"compound": "O=S(=O)(Nc1cc(F)ccc1F)c1ccc2[nH]c3c(c2c1)CCCC3", "Potency": "inconclusive: 19 µM [inhibitor, partial curve, poor fit]"}
{"compound": "CC(C)(C)C(=O)Nc1ccc2nc(SCC(=O)N3CCOCC3)sc2c1", "Potency": "inconclusive: 30.1 µM [inhibitor, partial curve, poor fit]"}
{"compound": "COc1ccccc1OCCCn1cc(C#N)c2ccccc21", "Potency": "inconclusive: 23.9 µM [inhibitor, partial curve, poor fit]"}
{"compound": "COc1ccc(-c2c(-c3cc(OC)c(OC)c(OC)c3)noc2C)cn1", "Potency": "inconclusive: 30.1 µM [inhibitor, single point]"}
{"compound": "Brc1ccc(-c2nnc(-c3ccc4c(c3)OCO4)o2)o1", "Potency": "active: 1.69 µM"}
{"compound": "CCN(CC)CCNC(=O)c1cn(CC)c2cc(N3CCN(C)CC3)c(F)cc2c1=O", "activity change, negative = inhibition": "inactive: -0.189%"}
{"compound": "Cc1ccc(S(=O)(=O)NC(CC(C)C)C(=O)NCC(c2ccco2)N2CCCCC2)cc1", "note": "(configuration not stated)", "Potency": "active: 19 µM"}
{"compound": "Cc1ccc(NC(=O)Nc2cnccn2)cc1", "Potency": "active: 16.9 µM"}
{"compound": "N=c1c(C(=O)NCCc2ccccc2)cc2c(=O)n3ccccc3nc2n1Cc1ccco1", "activity change, negative = inhibition": "inactive: -0.694%"}
{"compound": "C(=N\\Nc1nc2ccccc2[nH]1)/C1CCCCC1", "Potency": "active: 3.38 µM"}
{"compound": "O=C(CCSCc1ccccc1Cl)NC1CCCC1", "Potency": "inconclusive: 37.9 µM [inhibitor, partial curve, poor fit]"}
{"compound": "CCc1ccc(NC(=O)CO/N=C(\\C)c2cc3ccccc3o2)cc1", "Potency": "inconclusive: 37.9 µM [inhibitor, partial curve, poor fit]"}
{"compound": "Cc1cc(C)nc(Nc2ccc(Cl)cc2C)n1", "Potency": "inconclusive: 16.9 µM [inhibitor, partial curve, poor fit]"}
{"compound": "Cc1cc(C)cc(NC(=O)Cn2cc(S(=O)(=O)NC(C)(C)C)c(S(=O)(=O)NC(C)(C)C)c2)c1", "activity change, negative = inhibition": "inactive: -0.937%"}
{"compound": "NC(=O)c1c(NC(=O)c2ccco2)sc2c1CCC2", "Potency": "active: 9.53 µM"}
{"compound": "COC(C[C@@H](O)[C@@H](C)[C@@H](O)COCc1ccccc1)OC", "activity change, negative = inhibition": "inactive: -1.1%"}
{"compound": "Nc1nc2ccccc2n1C(=O)c1ccco1", "Potency": "active: 10.7 µM"}
{"compound": "CCOC(=O)N1CCN(C(=O)CSc2ccc(-c3cccc(OC)c3)nn2)CC1", "Potency": "inconclusive: 21.3 µM [inhibitor, partial curve, poor fit]"}
